Reference: the supplement of paper PMC5998384

How the values were obtained:
HeLa Kyoto [1] = test: thermal stability score vs G1/S (z-score of summed log2 fold changes over temperatures); higher = more thermally stable than in G1/S
HeLa Kyoto [2] = test: solubility change mitosis vs G1/S (difference of NP-40 vs SDS log2 ratios) (log2 ratio difference); higher = more soluble in mitosis
HeLa Kyoto [3] = test: solubility in G1/S (NP-40 vs SDS abundance) (log2 ratio); higher = more soluble; details: cell cycle stage: G1/S
HeLa Kyoto [4] = test: melting temperature (median over replicates), in situ; higher = more thermally stable
[5] = cell cycle stage: early G1 (4.5 h after nocodazole release)
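Wherever melting temperature (median over replicates), in situ is given: HeLa Kyoto cells synchronized by double thymidine or nocodazole block, proteins quantified by TMT10plex mass spectrometry, three independent biological replicates.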
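Wherever solubility change mitosis vs G1/S (difference of NP-40 vs SDS log2 ratios) is given: synchronized HeLa Kyoto cells (double thymidine block for G1/S, nocodazole release for mitosis), protein amounts in NP-40 versus SDS lysates quantified by mass spectrometry, three biological replicates.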
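Wherever solubility in G1/S (NP-40 vs SDS abundance) is given: HeLa Kyoto cells arrested at G1/S by double thymidine block, proteins quantified by TMT10plex mass spectrometry in mild NP-40 versus SDS extracts, three biological replicates.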
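Wherever thermal stability score vs G1/S (z-score of summed log2 fold changes over temperatures) is given: synchronized HeLa Kyoto cells, proteins quantified by TMT10plex mass spectrometry, three biological replicates, mitosis taken 0.5 h after nocodazole release, G1/S directly after double thymidine block.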

Substance | thermal stability score (HeLa Kyoto [1]; [5]) | thermal stability score (HeLa Kyoto [1]; cell cycle stage: mitosis) | solubility change mitosis (log2) (HeLa Kyoto [2]) | solubility in G1/S (log2) (HeLa Kyoto [3]) | melting temperature (HeLa Kyoto [4]; cell cycle stage: G1/S) | melting temperature (HeLa Kyoto [4]; cell cycle stage: mitosis)
APC | -0.0369 | 0.455 | -0.0555 | -0.0417 | 51.5 °C | 52.7 °C
CCT5 (sequence left out) | 0.0012 | -1.08 | -0.115 | 0.334 | 54.2 °C | 53.8 °C
EIF2AK1 (sequence left out) | -0.109 | -0.576 | 0.028 | -0.289 |  | 
EIF2S2 (sequence left out) | -0.0526 | -2.09 | 0.0541 | 0.0663 | 54.1 °C | 54 °C
EIF3A (sequence left out) | -0.561 | 1.01 | -0.0239 | -0.482 | 49.3 °C | 49.2 °C
EXOC5 (sequence left out) | 0.476 | 0.71 | -0.111 | 0.0694 | 49.7 °C | 48.4 °C
EZR (sequence left out) | -0.195 | -0.244 | -0.00638 | 0.0636 | 52.8 °C | 52.2 °C
GBF1 (sequence left out) | -1.15 | -0.203 | -0.107 | -0.139 | 50.5 °C | 49.9 °C
INO80 (sequence left out) |  |  | -0.00769 | -0.336 |  | 
MAX (sequence left out) |  |  | 0.0834 | 0.0325 | 53.4 °C | 52 °C
MDKFWWHAAWGLCLVPLSLA[skipping about 200 residues]ATTLMSTSATATETATKRQETWDWFSWLFLPSESKNHLHTTTQMAGTSSNTISAGWEPNEENEDERDRHLSFSGSGIDDDEDFISSTISTTPRAFDHTKQNQDWTQWNPSHSNPEVLLQTTTRMTDVDRNGTTAYEGNWNPEAHPPLIHHEHHEEEETPHSTSTIQATPSSTTEETATQKEQWFGNRWHEGYRQTPKEDSHSTTGTAAASAHTSHPMQGRTTPSPEDSSWTDFFNPISHPMGRGHQAGRRMDMDSSHSITLQPTANPNTGLVEDLDRTGPLSMTTQQSNSQSFSTSHEGLEEDKDHPTTSTLTSSNRNDVTGGRRDPNHSEGSTTLLEGYTSHYPHTKESRTFIPVTSAKTGSFGVTAVTVGDSNSNVNRSLSGDQDTFHPSGGSHTTHGSESDGHSHGSQEGGANTTSGPIRTPQIPEWLIILASLLALALILAVCIAVNSRRRCGQKKKLVINSGNGAVEDRKPSGLNGEASKSQEMVHLVNKESSETPDQFMTADETRNLQNVDMKIGV [CD44] | -2.25 | -2.31 | 0.0127 | -0.117 | 61.8 °C | 66.3 °C
MLEICLKLVGCKSKKGLSSSSSCYLEEALQRPVASDFEPQGLSEAARWNSKENLLAGPSE[skipping about 60 residues]LEKHSWYHGPVSRNAAEYLLSSGINGSFLVRESESSPGQRSISLRYEGRVYHYRINTASDGKLYVSSESRFNTLAELVHHHSTVADGLITTLHYPAPKRNKPTVYGVSPNYDKWEMERTDITMKHKLGGGQYGEVYEGVWKKYSLTVAVKTLKEDTMEVEEFLKEAAVMKEIKHPNLVQLLGVCTREPPFYIITEFMTYGNLLDYLRECNRQEVNAVVLLYMATQISSAMEYLEKKNFIHRDLAARNCLVGENHLVKVADFGLSRLMTGDTYTAHAGAKFPIKWTAPESLAYNKFSIKSDVWAFGVLLWEIATYGMSPYPGIDLSQVYELLEKDYRMERPEGCPEKVYELMRACWQWNPSDRPSFAEIHQAFETMFQESSISDEVEKELGKQGVRGAVSTLLQAPELPTKTRTSRRAAEHRDTTDVPEMPHSKGQGESDPLDHEPAVSPLLPRKERGPPEGGLNEDERLLPKDKKTNLFSALIKKKKKTAPTPPKRSSSFREMDGQPERRGAGEEEGRDISNGALAFTPLDTADPAKSPKPSNGAGVPNGALRESGGSGFRSPHLWKKSSTLTSSRLATGEEEGGGSSSKRFLRSCSASCVPHGAKDTEWRSVTLPRDLQSTGRQFDSSTFGGHKSEKPALPRKRAGENRSDQVTRGTVTPPPRLVKKNEEAADEVFKDIMESSPGSSPPNLTPKPLRRQVTVAPASGLPHKEEAGKGSALGTPAAAEPVTPTSKAGSGAPGGTSKGPAEESRVRRHKHSSESPGRDKGKLSRLKPAPPPPPAASAGKAGGKPSQSPSQEAAGEAVLGAKTKATSLVDAVNSDAAKPSQPGEGLKKPVLPATPKPQSAKPSGTPISPAPVPSTLPSASSALAGDQPSSTAFIPLISTRVSLRKTRQPPERIASGAITKGVVLDSTEALCLAISRNSEQMASHSAVLEAGKNLYTFCVSYVDSIQQMRNKFAFREAINKLENNLRELQICPATAGSGPAATQDFSKLLSSVKEISDIVQR [ABL1] | 0.319 | 0.808 | 0.0814 | -0.0433 | 48.5 °C | 50.3 °C
MSLN (sequence left out) | -0.135 | -0.382 | 0.12 | 0.271 | 54.2 °C | 53.7 °C
NCAPD2 (sequence left out) | 0.0891 | 2.02 | -0.0444 | -0.161 | 49.2 °C | 48.9 °C
PLD2 (sequence left out) |  |  | 0.022 | -0.332 |  | 
TGFB1 (sequence left out) |  |  | -0.273 | 0.341 |  | 
[skipping about 250 residues]ETPLLGSSLVQNSILVDSVTGVPTNPSFQKPSTSAFPAPVPLNSGNISVQDSHTSDNLSMLATGMPSTSYGLSSHQEWPQHQDSARTEQLYSQKQETSLSGSQYNINFQQGPSISLHSGLHHRPDKISDHSSVKQEYTHKAGSSKHHGPISTTPGIIPQKMSLDKYREKRKLETLDLDVRDHYIAAQVEQQHKQGQSQAASSSSVTSPIKMKIPIANTEKYMADKKEKSGSLKLRIPIPPTDKSASKEELKMKIKVSSSERHSSSDEGSGKSKHSSPHISRDHKEKHKEHPSSRHHTSSHKHSHSHSGSSSGGSKHSADGIPPTVLRSPVGLSSDGISSSSSSSRKRLHVNDASHNHHSKMSKSSKSSGSSSSSSSSVKQYISSHNSVFNHPLPPPPPVTYQVGYGHLSTLVKLDKKPVETNGPDANHEYSTSSQHMDYKDTFDMLDSLLSAQGMNM [CCNT2] |  |  | 0.238 | -0.34 |  | 
[skipping about 500 residues]DNAFHLGPLRVTTTNTVASTPPTPTCEDAASRQQRLSALRRYQDKRLLALSNESDSEENVCEVELDTDLFPRPRSPSPEDESSSSSSSSSSEDEEELNERRASTWQRNAMRRRQKTTREDKPSAPIKPTNTYIGEDNYDYPQIKVDDLSSSPTSSPERSTSTLEIQPSRASPTSDIESVERKIYKAYKWLRYSYISYSNNKDGETSLVTGEADEGRAGTSHKDNPAPSSSKEACLNIAMAQRNQDLPPEGCSKDTFKEETPRTPSNGPGHEHSSHAWAEVPEGTSQDTGNSGSVEHPFETKKLNGKALSSRAEEPPSPPVPKASGSTLNSGSGNCPRTQSDDSEERSLETICANHNNGRLHPRPPHPHNNGQNLGELEVVAYSSPGHSDTDRDNSSLTGTLLHKDCCGSEMACETPNAGTREDPTDTPATDSSRAVHGHSGLKRQRIELEDTDSENSSSEKKLKT [DCAF5] |  |  | -0.193 | 0.0872 |  | 
